Measurements as given in the supplement of paper PMC6531468.
This is one part of the list. Values come from read counts of a selection and are noisy. Scores sum up all selected molecules that hold the word; the word was not tested alone.

What follows are sequences tested on IMP3 RRM1-2 (assay: 6-mer SELEX enrichment z-score vs GST control; IMP3 is the RNA-binding protein IGF2BP3; higher = more enriched by binding). Conditions: construct: RRM1-2 (1-163); SELEX round: R2.
Description: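 SELEX-seq with GST-tagged IMP3 RRM1-2 (Met1-Asn163) and an N40 RNA pool, round 2. 6-mer enrichment z-score normalised to GST SELEX. RNA written as DNA (T = U).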

Chain of IMP3 RRM1-2 (chain, as listed by the source): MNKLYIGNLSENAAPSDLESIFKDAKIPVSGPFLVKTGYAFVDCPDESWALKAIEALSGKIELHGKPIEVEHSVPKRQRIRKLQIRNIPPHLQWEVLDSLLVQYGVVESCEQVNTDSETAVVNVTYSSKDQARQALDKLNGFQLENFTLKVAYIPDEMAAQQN

Sequence | 6-mer SELEX enrichment z-score
CAGCAC | 1.31
CCCTTC | 0.174
GAATCG | -0.588
CCGGAC | -1.19
CATAGT | 0.746
ACTAAA | -0.929
GATGCC | -0.705
TCGTCG | 0.408
GATATT | 0.019
TTGACG | -0.37
GTATTC | 0.313
ACAAAC | 1.42
TGTTAT | 0.284
TTCCAG | 0.146
AAAACC | -2.63
TGCTAT | 0.192
GCTGAA | -0.576
TAGCGG | 0.099
TCTCGG | 0.55
GCCAAA | -1.28

Sequence | 6-mer SELEX enrichment z-score
GCCCGC | -0.145
CCTCGT | 0.034
AGCTAG | 0.009
CCCGGA | -1.39
CTACTT | 0.285
GGAGGC | -0.031
ACTGTA | -0.403
GTCGTG | 0.282
TTGGTT | 0.625
CGTGGC | -0.077
ATCTAT | 0.401
TCGCCC | -0.193
CACTCT | 0.54
CGCCTT | 0.014
AGGAAC | 0.038
CGAAGA | -1.71
AGTTAA | -0.372
TGTTAC | 0.106
CAGCTC | 0.505
AAAGAG | -1.77
